Results as given in the supplement of paper PMC4967469.

Assays:
Assay in all cases: Viability of human cancer cell lines after 72 h of drug (GDSC screen)
NSC-87877 = compound: O=S(=O)(O)c1ccc2cc(N=Nc3cc(S(=O)(=O)O)c4cccnc4c3O)ccc2c1 [NSC-87877]; details: top dose 16 µM; top dose inferred
Method: (§1)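 Human cancer cell lines in 384-well plates, medium with 10% serum, drug for 72 h over a 256-fold dose range (nine 2-fold or five 4-fold steps up to the top dose). Adherent lines were fixed and stained with the nucleic acid dye Syto60, suspension lines read with resazurin; signal relative to control wells, capped at 0 and 100%. One two-parameter sigmoid per drug and line, fitted in a mixed model over all curves with the slope shared within a line.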

OSI-930 = compound: O=C(Nc1ccc(OC(F)(F)F)cc1)c1sccc1NCc1ccnc2ccccc12 [OSI-930]; details: top dose 10.24 µM
Method: as §1

Masitinib = compound: Cc1ccc(NC(=O)c2ccc(CN3CCN(C)CC3)cc2)cc1Nc1nc(-c2cccnc2)cs1 [Masitinib]; details: top dose 20 µM
Method: as §1

Tamoxifen = compound: CC/C(=C(\c1ccccc1)c1ccc(OCCN(C)C)cc1)c1ccccc1 [Tamoxifen]; details: top dose 5 µM
Method: as §1

BX-912 = compound: O=C(Nc1cccc(Nc2ncc(Br)c(NCCc3cnc[nH]3)n2)c1)N1CCCC1 [BX-912]; details: top dose 10.24 µM; top dose inferred
Method: as §1

VNLG/124 = compound: CCCC(=O)OCc1ccc(OC(=O)/C=C(C)/C=C/C=C(C)/C=C/C2=C(C)CCCC2(C)C)cc1 [VNLG/124]; details: top dose 5.12 µM; top dose inferred
Method: as §1

Bleomycin = compound: Cc1c(N)nc([C@H](CC(N)=O)NC[C@H](N)C(N)=O)nc1C(=O)N[C@H](C(=O)N[C@H](C)[C@@H](O)[C@H](C)C(=O)N[C@H](C(=O)NCCc1nc(-c2nc(C(=O)NCCC[S+](C)C)cs2)cs1)[C@@H](C)O)[C@@H](OC1OC(CO)C(O)C(O)C1OC1OC(CO)C(O)C(OC(N)=O)C1O)c1cnc[nH]1 [Bleomycin]
Method: as §1

LAQ824 = compound: O=C(/C=C/c1ccc(CN(CCO)CCc2c[nH]c3ccccc23)cc1)NO [LAQ824]; details: top dose 1.024 µM; top dose inferred
Method: as §1

[1] = top dose 50 µM, screen: GDSC drug entry 1378, top dose inferred
[2] = top dose 64 µM, screen: GDSC drug entry 190

| Cell Line | AUC (NSC-87877) | IC50 (NSC-87877) [µM] | AUC (OSI-930) | IC50 (OSI-930) [µM] | AUC (Masitinib) | IC50 (Masitinib) [µM] | AUC (Tamoxifen) | IC50 (Tamoxifen) [µM] | AUC (BX-912) | IC50 (BX-912) [µM] | AUC (VNLG/124) | IC50 (VNLG/124) [µM] | AUC (Bleomycin; [1]) | IC50 (Bleomycin; [1]) [µM] | AUC (Bleomycin; [2]) | IC50 (Bleomycin; [2]) [µM] | AUC (LAQ824) | IC50 (LAQ824) [µM] |
| --- | --- | --- | --- | --- | --- | --- | --- | --- | --- | --- | --- | --- | --- | --- | --- | --- | --- | --- |
| J82 (bladder, adherent) | 0.979 | > 16 | 0.979 | > 10.2 | 0.948 | > 20 | 0.94 | > 5 | 0.985 | > 10.2 | 0.977 | > 5.12 | 0.508 | 3.28 | 0.276 | 0.927 | 0.556 | 0.0908 |
| JAR (urogenital system, adherent) | 0.985 | > 16 | 0.983 | > 10.2 | 0.868 | 17.6 | 0.903 | > 5 | 0.895 | > 10.2 | 0.973 | > 5.12 | 0.488 | 2.9 | 0.944 | > 64 | 0.572 | 0.1 |
| KALS-1 (glioma, adherent) | 0.978 | > 16 | 0.979 | > 10.2 | 0.864 | > 20 | 0.915 | > 5 | 0.923 | > 10.2 | 0.977 | > 5.12 | 0.813 | 40.7 | 0.625 | 10 | 0.604 | 0.137 |
| KG-1 (acute myeloid leukaemia, suspension) | 0.979 | > 16 | 0.888 | 9.42 | 0.686 | 3.89 | 0.974 | > 5 | 0.784 | 3.88 | 0.974 | > 5.12 | – | – | 0.154 | 0.405 | 0.405 | 0.0362 |
| KP-4 (pancreas, adherent) | 0.988 | > 16 | 0.982 | > 10.2 | 0.916 | > 20 | 0.987 | > 5 | 0.651 | 1.65 | 0.988 | > 5.12 | 0.537 | 3.92 | 0.407 | 2.25 | 0.605 | 0.123 |
| KYSE-180 (oesophagus, adherent) | 0.93 | > 16 | 0.983 | > 10.2 | 0.882 | 19.6 | 0.954 | > 5 | 0.948 | > 10.2 | 0.944 | > 5.12 | 0.444 | 2.21 | 0.437 | 2.72 | 0.421 | 0.0394 |
| KYSE-270 (oesophagus, adherent) | 0.979 | > 16 | 0.987 | > 10.2 | 0.899 | 18.8 | 0.975 | > 5 | 0.919 | > 10.2 | 0.988 | > 5.12 | 0.5 | 3.12 | 0.253 | 0.894 | 0.287 | 0.0179 |
| LC-2-ad (lung adenocarcinoma, adherent) | 0.985 | > 16 | 0.941 | > 10.2 | 0.776 | 8.17 | 0.983 | > 5 | 0.734 | 3.03 | 0.973 | > 5.12 | 0.471 | 2.6 | 0.1 | < 0.25 | 0.234 | 0.0106 |

By IC50 is meant the dose at which the fit gives 50% viability; where the fit passes the top or lowest dose, that dose stands as a limit. AUC is the area under the same curve over the 256-fold range up to the top dose, as a fraction: 1 means no effect, lower means more sensitive. For some of these results: Any top dose called inferred comes from the curve model; the source does not state it. For some of these results: An entry number marks a drug with two screens in the source, which often give different values.
